{
  "source": "PubChem BioAssay AID1476",
  "about": "(National Center for Advancing Translational Sciences (NCATS), 2009)",
  "note": "Hit rate of the full screen: of about 200,000 compounds, about 4,500 (2.2%) were called active. The inconclusive results got no clear call from the source; some entries with a clear call stand among them for comparison. Calls come from the whole dose curve; as a rule, active = well fitted inhibition curve with a large enough effect; inconclusive = small, poorly fitted or top-dose-only effect, or effect the other way; inactive = flat fitted curve, though single readings scatter. Where the call is inconclusive, the potency comes from a doubtful curve fit. Potency is the fitted concentration of half-maximal effect; tags give direction and shape of the fitted curve.",
  "data": [
    {"biological_target": "Cruzipain (Trypanosoma cruzi) (UniProt P25779)", "sequence (P25779 whole entry, looked up)": "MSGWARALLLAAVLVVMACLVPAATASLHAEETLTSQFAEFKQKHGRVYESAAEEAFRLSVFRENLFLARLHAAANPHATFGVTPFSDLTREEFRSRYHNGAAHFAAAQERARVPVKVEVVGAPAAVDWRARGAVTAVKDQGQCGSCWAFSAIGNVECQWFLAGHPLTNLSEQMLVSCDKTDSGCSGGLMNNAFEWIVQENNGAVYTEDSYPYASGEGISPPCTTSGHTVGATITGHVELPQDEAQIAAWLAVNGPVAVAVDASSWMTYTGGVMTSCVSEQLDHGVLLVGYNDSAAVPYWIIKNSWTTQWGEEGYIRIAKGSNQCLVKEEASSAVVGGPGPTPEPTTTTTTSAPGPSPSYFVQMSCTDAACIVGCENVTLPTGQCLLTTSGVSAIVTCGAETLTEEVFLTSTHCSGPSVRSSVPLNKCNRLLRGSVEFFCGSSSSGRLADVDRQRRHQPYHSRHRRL", "assay": "qHTS Assay for Promiscuous and Specific Inhibitors of Cruzain (without detergent); note: nearly all actives have a fitted effect of over 40% in size;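 for max response, negative = inhibition: plate controls were enzyme without inhibitor for no effect and buffer without enzyme for full effect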", "conditions": "purified cruzain, Z-FR-AMC fluorescence, no detergent", "how_it_was_run": "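Detergent-free condition (0.00005% Triton X-100) in acetate buffer pH 5.5 with DTT. 1.5 nM enzyme and compound were pre-mixed 15 min, then 2 uM Z-FR-AMC substrate added; reaction progress from fluorescence change between first and third reads (60 s).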", "values": [
      {"smiles": "CSc1ccc(/C=N/NC(=O)c2sccc2C)cc1", "Potency": "inconclusive: 31.6 µM [inhibitor, single point]"},
      {"smiles": "CCOc1ccccc1NC(=O)N1c2ccccc2Sc2ccccc21", "Potency": "inconclusive: 31.6 µM [inhibitor, single point]"},
      {"smiles": "CCOc1ccc(N(C)S(=O)(=O)c2c(C(=O)N3CCC(C)CC3)c(C)n(C)c2C)cc1", "Potency": "inconclusive: 31.6 µM [activator, single point]"},
      {"smiles": "CCOc1cc(CNC2CCCC2)cc(Cl)c1OCc1ccc(F)cc1", "Potency": "inconclusive: 1 µM [inhibitor, single point]"},
      {"smiles": "O=C(COc1ccc(Br)cc1)Nc1cc(S(=O)(=O)N2CCCCC2)ccc1N1CCCCC1", "Potency": "inconclusive: 20 µM [inhibitor, partial curve, poor fit]"},
      {"smiles": "Cc1cccc(-n2ncc(C(=O)N3CCN(Cc4ccccc4)CC3)c2C2CCN(C(=O)OC(C)(C)C)CC2)c1", "Potency": "inconclusive: 31.6 µM [activator, single point]"},
      {"smiles": "CC(C)(C)C1CCc2onc(C(=O)Nc3cnn(Cc4ccc(F)cc4)c3)c2C1", "note": "(stereo unspecified)", "max response, negative = inhibition": "inactive: 13.4%"},
      {"smiles": "CC1CCN(C(=O)CN(c2ccc(Cl)c(C(F)(F)F)c2)S(C)(=O)=O)CC1", "Potency": "inconclusive: 31.6 µM [activator, single point]"},
      {"smiles": "Cc1noc(C)c1C(=O)N1CCC2(CCN(C(=O)NC(C)C)CC2)CC1", "max response, negative = inhibition": "inactive: -4.43%"},
      {"smiles": "Cc1cnc(CNc2cc(-c3ccoc3)ncn2)cn1", "max response, negative = inhibition": "inactive: 22.9%"},
      {"smiles": "CC(=O)Nc1cc(C(=O)NCc2ccc(C)cc2)ccc1S(=O)(=O)c1ccc(Cl)cc1", "max response, negative = inhibition": "inactive: -4.74%"},
      {"smiles": "O=C(NC(=S)Nc1cc(C(F)(F)F)ccc1N1CCOCC1)c1ccc(-c2cccc(Cl)c2)o1", "Potency": "active: 10 µM"},
      {"smiles": "CCn1c(SCc2cccc(Br)c2)nnc1-c1nonc1NC(C)=O", "max response, negative = inhibition": "inactive: -5.42%"},
      {"smiles": "COc1cc2c(cc1NC(=O)CSc1ccccn1)oc1ccccc12", "Potency": "inconclusive: 39.8 µM [inhibitor, single point]"},
      {"smiles": "Clc1ccc(Nc2ccc(-n3ccnc3)nn2)cc1Cl", "Potency": "inconclusive: 25.1 µM [inhibitor, single point]"},
      {"smiles": "CCOC(=O)c1c(NC(=O)CSc2nnc(CNC(=O)c3ccco3)n2C)sc2c1CCC2", "Potency": "inconclusive: 31.6 µM [activator, single point]"},
      {"smiles": "CC(=O)Nc1ccc(C(=O)NNC(=O)c2cccs2)cc1", "max response, negative = inhibition": "inactive: 3.06%"},
      {"smiles": "C=CCn1c(=N)c(C(=O)NCCCOC)cc2c(=O)n3cc(C)ccc3nc21", "Potency": "inconclusive: 39.8 µM [inhibitor, single point]"},
      {"smiles": "CCc1ccccc1NC(=O)Nc1cc(C(=O)NCc2cccc(F)c2)ccc1N1CCCC1", "max response, negative = inhibition": "inactive: 2.76%"},
      {"smiles": "O=C(c1cnccn1)N1CCC[C@@]2(CCN(Cc3nccs3)C2)C1", "max response, negative = inhibition": "inactive: -3.78%"},
      {"smiles": "O=C(O)c1ccc(CSc2nc3ccc(N4C(=O)C5C6C=CC(C6)C5C4=O)cc3s2)cc1", "note": "(stereo unspecified)", "Potency": "inconclusive: 39.8 µM [activator, single point]"},
      {"smiles": "CC(C)Nc1ccc(Nc2ccccc2)cc1", "Potency": "active: 31.6 µM"},
      {"smiles": "Cc1cccc(C)c1NC(=O)C(=O)NCC(c1ccc2c(c1)OCO2)N1CCOCC1", "note": "(stereo unspecified)", "max response, negative = inhibition": "inactive: 1.08%"},
      {"smiles": "COc1ccc(-n2c(C)cc(C(=O)COC(=O)Cc3n[nH]c(=O)c4ccccc34)c2C)cc1", "Potency": "inconclusive: 31.6 µM [inhibitor, single point]"},
      {"smiles": "CCN(CC)S(=O)(=O)c1ccc(Cl)c(NC(=O)COc2ccc(OC)cc2[N+](=O)[O-])c1", "Potency": "active: 12.6 µM"},
      {"smiles": "CC1(C)CC(=O)C(CC2=C(O)CC(C)(C)CC2=O)C(=O)C1", "Potency": "inconclusive: 0.316 µM [inhibitor, partial curve, poor fit]"},
      {"smiles": "CCOC(=O)CNc1oc(-c2ccccc2)nc1-c1ccccc1", "max response, negative = inhibition": "inactive: 2.9%"},
      {"smiles": "O=C(CSc1nc2ccccc2c(=O)n1-c1ccccc1Cl)Nc1cccc(S(=O)(=O)N2CCOCC2)c1", "Potency": "inconclusive: 25.1 µM [inhibitor, partial curve, poor fit]"},
      {"smiles": "Cc1ccc(C(=O)N2CCc3cc(CNC(=O)c4ccc(Br)cc4)ccc32)cc1", "Potency": "inconclusive: 39.8 µM [inhibitor, single point]"},
      {"smiles": "O=C(Nc1ccc2nc(SCC(=O)N3CCc4ccccc43)sc2c1)c1cccc(F)c1", "Potency": "inconclusive: 6.31 µM [inhibitor, single point]"},
      {"smiles": "CCC(=O)NC(=S)Nc1ccc(-c2nc3ccc(C)cc3s2)cc1", "Potency": "inconclusive: 5.01 µM [inhibitor, full curve]"},
      {"smiles": "C/C(=N\\NC(N)=S)c1ccc(Cl)s1", "Potency": "active: 0.251 µM"},
      {"smiles": "COC(=O)c1cc(OC)c(OC)cc1NC(=O)c1ccc(OC)c(OC)c1", "Potency": "inconclusive: 31.6 µM [activator, single point]"},
      {"smiles": "O=C(NCCN1C(=O)S/C(=C\\c2ccccc2)C1=O)c1cc(S(=O)(=O)N2CCOCC2)c(Cl)cc1Cl", "Potency": "inconclusive: 39.8 µM [inhibitor, single point]"},
      {"smiles": "CCCCC/C=C\\C/C=C\\C/C=C\\C=C\\[C@@H](O)CCCC(=O)O", "max response, negative = inhibition": "inactive: -1.96%"},
      {"smiles": "COc1c2c(cc3c1C(NC(N)=O)[N+](C)(C)CC3)OCO2", "note": "(stereo unspecified)", "max response, negative = inhibition": "inactive: -1.49%"},
      {"smiles": "CCCCN(C(=O)CSc1nnc2ccccn12)c1c(N)n(Cc2ccccc2)c(=O)[nH]c1=O", "Potency": "inconclusive: 25.1 µM [activator, single point]"},
      {"smiles": "CCOC(=O)CCn1cnc2onc(-c3cc(OC)ccc3Cl)c2c1=O", "max response, negative = inhibition": "inactive: -1.1%"},
      {"smiles": "Oc1c(C(O)(c2ccccc2)c2ccc3ccccc3c2O)ccc2ccccc12", "Potency": "inconclusive: 7.94 µM [inhibitor, single point]"},
      {"smiles": "COc1ccc(Oc2ncc3ncc(=O)n(Cc4cccc(OC)c4)c3n2)cc1", "Potency": "inconclusive: 31.6 µM [activator, single point]"},
      {"smiles": "COC(=O)CCC(C)C1CCC2C3C(O)C[C@@H]4CC(O)CC[C@@]4(C)C3CC(O)[C@]12C", "note": "(stereo partly specified)", "Potency": "inconclusive: 7.94 µM [activator, full curve]"},
      {"smiles": "Cc1ccccc1Nc1nc(-c2sc(NC(=O)c3ccccc3)nc2C)cs1", "Potency": "active: 12.6 µM"},
      {"smiles": "CC1CCCCC1NC(=O)C1CCN(S(=O)(=O)c2cccc3nsnc23)CC1", "note": "(stereo unspecified)", "Potency": "inconclusive: 25.1 µM [inhibitor, single point]"},
      {"smiles": "COc1cc(NC(=O)c2cccs2)c(C(=O)OCC(=O)c2cc(C)n(-c3ccccc3)c2C)cc1OC", "Potency": "active: 3.16 µM"},
      {"smiles": "CCOc1ccc(/C=C2/C(=O)N(c3ccc(OC)cc3)C(=S)N2CC(=O)OC)cc1OCC", "Potency": "inconclusive: 12.6 µM [activator, partial curve]"},
      {"smiles": "O=C(Nc1ccccc1C(F)(F)F)c1cc(-c2ccc3c(c2)OCCO3)on1", "max response, negative = inhibition": "inactive: -0.21%"},
      {"smiles": "N#C/C(=C\\c1ccc(Sc2ccc(Cl)cc2)o1)c1nc2ccccc2[nH]1", "Potency": "inconclusive: 25.1 µM [inhibitor, single point]"},
      {"smiles": "COc1ccc(CNCCCSc2nnnn2-c2ccccc2)cc1", "max response, negative = inhibition": "inactive: -19.1%"},
      {"smiles": "Cc1ccc(S(=O)(=O)N2CCC(=O)N(CCOCc3ccc(Cl)cc3)CC2)cc1", "Potency": "inconclusive: 39.8 µM [activator, single point]"},
      {"smiles": "COCCn1nnnc1C(c1ccccc1OC)N1CCN(c2ccccc2F)CC1", "note": "(stereo unspecified)", "Potency": "inconclusive: 31.6 µM [activator, single point]"},
      {"smiles": "Cc1cccc(OCc2nc(CC(=O)Nc3ccc(C)cc3C)cs2)c1", "max response, negative = inhibition": "inactive: -0.881%"},
      {"smiles": "N#Cc1ccccc1CN1C(=O)S/C(=C/c2cccn2-c2ccc(C(=O)O)cc2)C1=O", "Potency": "inconclusive: 25.1 µM [activator, single point]"},
      {"smiles": "CCN(c1ccccc1)S(=O)(=O)c1nnc(NC(=O)c2ccccc2)s1", "max response, negative = inhibition": "inactive: 1.63%"},
      {"smiles": "O=C1N=C(c2ccccc2)C(c2ccccc2)N1", "note": "(stereo unspecified)", "Potency": "inconclusive: 39.8 µM [activator, single point]"},
      {"smiles": "C#CCOCCOCCOCCNc1nc(N2CCN(C(=O)[C@H]([C@@H](C)CC)n3cc(CCCN=C(N)N)nn3)CC2)nc(N2CCN(C(=O)[C@H]([C@@H](C)CC)n3cc(CCCN=C(N)N)nn3)CC2)n1", "Potency": "inconclusive: 39.8 µM [inhibitor, single point]"},
      {"smiles": "CCOC(=O)c1ccc(NC(=O)c2cccc(S(=O)(=O)N3CCOCC3)c2)cc1", "Potency": "inconclusive: 39.8 µM [activator, single point]"},
      {"smiles": "CCOC(=O)C1=C(c2ccccc2)N=c2s/c(=C\\c3ccc(O)cc3)c(=O)n2C1c1cccs1", "note": "(stereo unspecified)", "Potency": "active: 12.6 µM"},
      {"smiles": "COc1cc(NC(=O)C2CCN(S(=O)(=O)c3ccc4c(c3)CCCC(=O)N4)CC2)cc(OC)c1", "max response, negative = inhibition": "inactive: 12.3%"},
      {"smiles": "O=C(Cc1cn2ccsc2n1)Nc1cccc2cnccc12", "Potency": "active: 12.6 µM"},
      {"smiles": "Cc1sc2c(c1C)c(=O)n(-c1ccc(Cl)cc1)c(=O)n2Cc1cc(=O)n2cc(Br)ccc2n1", "max response, negative = inhibition": "inactive: -5.48%"},
      {"smiles": "O=C(COC(=O)c1ccc2c(c1Cl)C(=O)c1ccccc1C2=O)NC1CCCCC1", "Potency": "inconclusive: 39.8 µM [inhibitor, single point]"},
      {"smiles": "CCCCCCCC/C=C\\CCCCCCCCOC[C@H](COP(=O)([O-])OCC[N+](C)(C)C)OC(C)=O", "Potency": "inconclusive: 39.8 µM [activator, single point]"},
      {"smiles": "Cc1cccc(NC(=O)CN2C(=O)N/C(=C/c3ccc(C)o3)C2=O)c1", "Potency": "inconclusive: 31.6 µM [inhibitor, single point]"},
      {"smiles": "CNC(=S)N1N=C(c2ccc(Br)cc2)CC1c1ccc(Br)cc1", "note": "(stereo unspecified)", "Potency": "inconclusive: 39.8 µM [inhibitor, single point]"},
      {"smiles": "Fc1ccc(CN(C2=NCCN2)c2c(Cl)cccc2Cl)cc1", "max response, negative = inhibition": "inactive: -5.26%"},
      {"smiles": "O=c1c(CCc2ccccc2)nc2cnc(N3CCNCC3)nc2n1Cc1cccs1", "Potency": "inconclusive: 39.8 µM [inhibitor, single point]"}
    ]}
  ]
}
